What all share (experiment): universal protein binding microarray (PBM)
Holding throughout (conditions): transcription factors of Arabidopsis thaliana; high values mean tight binding; most listed sequences are background and not binding sites; double strand, one strand shown

In one test the target is GST-NTL6(1-168) (UniProt Q9SCK6).
For a further test, the target named is T1, GST-NAP(1-166) (UniProt O49255).
T1 sequence: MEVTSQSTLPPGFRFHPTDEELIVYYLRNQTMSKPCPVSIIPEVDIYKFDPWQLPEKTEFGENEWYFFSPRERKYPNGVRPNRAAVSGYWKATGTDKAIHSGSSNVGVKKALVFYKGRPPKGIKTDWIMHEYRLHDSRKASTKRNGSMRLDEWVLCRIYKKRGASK

Another test concerns the target T2, GST-NST2(1-184) (UniProt Q9M274).
T2 sequence: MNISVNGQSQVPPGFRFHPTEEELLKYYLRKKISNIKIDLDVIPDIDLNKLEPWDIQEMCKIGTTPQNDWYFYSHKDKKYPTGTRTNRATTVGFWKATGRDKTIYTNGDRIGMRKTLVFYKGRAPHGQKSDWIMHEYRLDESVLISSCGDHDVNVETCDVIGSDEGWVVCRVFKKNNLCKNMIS

For another test, the target named is T3, GST-NTL8 NAC domain (UniProt Q9XIN7).
T3 sequence: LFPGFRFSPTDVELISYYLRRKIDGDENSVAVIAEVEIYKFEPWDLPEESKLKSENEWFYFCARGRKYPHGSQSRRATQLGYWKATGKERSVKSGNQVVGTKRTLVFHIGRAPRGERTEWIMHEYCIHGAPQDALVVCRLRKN

For a further test, the target named is T4, GST-SND1(1-203) (UniProt Q9LPI7).
T4 sequence: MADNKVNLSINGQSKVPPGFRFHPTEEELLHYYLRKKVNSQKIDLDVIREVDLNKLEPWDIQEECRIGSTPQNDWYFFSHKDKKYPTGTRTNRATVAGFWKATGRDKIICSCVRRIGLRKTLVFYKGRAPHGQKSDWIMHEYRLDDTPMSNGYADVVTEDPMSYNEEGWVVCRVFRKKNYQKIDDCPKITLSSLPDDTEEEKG

A further test concerns the target T5, GST-VND7 NAC domain (UniProt Q9C8W9).
T5 sequence: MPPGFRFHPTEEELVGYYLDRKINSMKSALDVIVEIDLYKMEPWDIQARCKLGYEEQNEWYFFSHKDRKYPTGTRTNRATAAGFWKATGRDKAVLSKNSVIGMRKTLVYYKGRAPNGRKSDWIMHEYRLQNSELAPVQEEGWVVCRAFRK

In test [1] the target is T6, GST-VOZ2 (Arabidopsis thaliana) (UniProt Q9SLB9).
T6 sequence: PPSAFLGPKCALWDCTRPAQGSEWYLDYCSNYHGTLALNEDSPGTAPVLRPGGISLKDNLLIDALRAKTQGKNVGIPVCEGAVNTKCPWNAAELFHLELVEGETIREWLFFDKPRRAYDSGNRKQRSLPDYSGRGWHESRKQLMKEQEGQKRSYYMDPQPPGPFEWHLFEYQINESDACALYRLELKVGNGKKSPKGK

The target in a further test is T7, GST-ANAC092(1-176) (UniProt Q9FKA0).
T7 sequence: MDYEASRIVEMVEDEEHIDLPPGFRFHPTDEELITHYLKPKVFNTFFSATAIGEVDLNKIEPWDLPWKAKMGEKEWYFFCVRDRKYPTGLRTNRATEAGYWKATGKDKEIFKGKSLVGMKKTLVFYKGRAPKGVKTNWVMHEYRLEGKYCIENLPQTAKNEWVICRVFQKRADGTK

The next test addresses T8, GST-ANAC019 NAC domain (UniProt Q9C932).
T8 sequence: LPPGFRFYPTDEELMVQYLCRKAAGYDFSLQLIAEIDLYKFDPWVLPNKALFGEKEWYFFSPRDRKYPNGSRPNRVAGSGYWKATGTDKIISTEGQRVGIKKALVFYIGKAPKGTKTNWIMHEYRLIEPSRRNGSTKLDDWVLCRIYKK

A further test concerns the target T9, GST-ANAC055(1-171) (UniProt Q9LDY8).
T9 sequence: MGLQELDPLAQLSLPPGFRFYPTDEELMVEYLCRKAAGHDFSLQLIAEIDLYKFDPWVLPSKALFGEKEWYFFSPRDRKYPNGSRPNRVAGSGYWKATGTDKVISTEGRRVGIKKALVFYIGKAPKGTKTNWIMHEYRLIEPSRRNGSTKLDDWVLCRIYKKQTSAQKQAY

In test [2] the target is T10, GST-ANAC092(1-285) full length (UniProt Q9FKA0).
T10 sequence: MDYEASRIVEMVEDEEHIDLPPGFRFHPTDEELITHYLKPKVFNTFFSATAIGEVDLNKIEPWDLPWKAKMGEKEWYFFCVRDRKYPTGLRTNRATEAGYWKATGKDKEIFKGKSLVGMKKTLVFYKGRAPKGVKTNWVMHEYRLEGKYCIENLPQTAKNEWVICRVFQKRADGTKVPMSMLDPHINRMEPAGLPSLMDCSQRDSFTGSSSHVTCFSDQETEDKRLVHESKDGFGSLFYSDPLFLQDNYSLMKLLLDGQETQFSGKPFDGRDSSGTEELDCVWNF

In the next test the target is T11, GST-ATAF1 NAC domain (UniProt Q39013).
T11 sequence: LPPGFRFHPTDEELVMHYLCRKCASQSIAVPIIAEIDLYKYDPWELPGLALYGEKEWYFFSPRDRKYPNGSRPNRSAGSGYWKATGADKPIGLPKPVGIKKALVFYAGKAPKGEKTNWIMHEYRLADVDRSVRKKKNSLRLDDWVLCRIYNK

The next test concerns the target GST-WRKY1(266-371) (UniProt Q9SI37).

This is a selection; strong and weak results do not stand in their true shares. For part of these data: At the low end of the ranking the order means little. This is one part of the list. For part of these data: Construct or isoform of the protein are uncertain.

Turning to ACGCAAGA, the binding signal came to 0.116 E-score with GST-NTL6(1-168); 0.285 E-score in the test with GST-NAP(1-166); 0.315 E-score in the test with GST-NST2(1-184); 0.128 E-score with GST-NTL8 NAC domain; 0.405 E-score with GST-SND1(1-203); 0.194 E-score with GST-VND7 NAC domain. In [1], the binding signal was found to be 0.0219 E-score.
Regarding AAGGAAAG, the binding signal was 0.261 E-score with GST-ANAC092(1-176); 0.398 E-score with GST-NTL6(1-168); 0.104 E-score with GST-ANAC019 NAC domain; -0.0269 E-score with GST-NAP(1-166); 0.239 E-score with GST-NST2(1-184); 0.467 E-score in the test with GST-NTL8 NAC domain. The binding signal with GST-SND1(1-203) was 0.262 E-score; with GST-VND7 NAC domain it was 0.117 E-score; in test [1], 0.00145 E-score.
As to ACGCAAAG, the binding signal with GST-NTL6(1-168) stood at 0.102 E-score; with GST-ANAC055(1-171) it was 0.228 E-score; in test [2] it was 0.452 E-score; with GST-SND1(1-203), 0.407 E-score; in the test with GST-VND7 NAC domain, 0.346 E-score; in test [1], 0.16 E-score.
On to ATTGCTTG, for which the binding signal with GST-ATAF1 NAC domain is 0.00945 E-score; in test [2], 0.408 E-score; with GST-NAP(1-166), -0.0157 E-score; with GST-NST2(1-184) it was 0.296 E-score; with GST-NTL8 NAC domain it was 0.143 E-score; in the test with GST-SND1(1-203), 0.406 E-score. For the same sequence, the binding signal with GST-VND7 NAC domain is 0.218 E-score; in [1], -0.0506 E-score; with GST-WRKY1(266-371) it was -0.00292 E-score.
For the sequence GTTGCTTA, the binding signal is 0.00421 E-score with GST-ANAC019 NAC domain; 0.393 E-score in test [2]; 0.0145 E-score with GST-NAP(1-166); 0.13 E-score with GST-NTL8 NAC domain; 0.469 E-score in the test with GST-SND1(1-203); 0.14 E-score in the test with GST-VND7 NAC domain. The binding signal in test [1] was 0.0351 E-score; with GST-WRKY1(266-371) it was -0.122 E-score.
In the case of ATGGTCAA, the binding signal with GST-ANAC092(1-176) was -0.034 E-score; with GST-ANAC019 NAC domain, -0.0837 E-score; in [2], 0.00072 E-score; with GST-NAP(1-166), -0.00677 E-score; with GST-NTL8 NAC domain, -0.0918 E-score; with GST-SND1(1-203) it was -0.152 E-score. In addition, the results for the binding signal (with GST-VND7 NAC domain; in [1]) were -0.0619 E-score and 0.0713 E-score, respectively.
Consider ATTTTGAC, for which the binding signal with GST-ANAC092(1-176) was 0.0462 E-score; with GST-NTL6(1-168), 0.0308 E-score; in the test with GST-ANAC019 NAC domain it was -0.0216 E-score; with GST-ANAC055(1-171) it was 0.0321 E-score; in the test with GST-NAP(1-166) it was -0.00087 E-score; with GST-NST2(1-184) it was 0.0826 E-score. The binding signal with GST-NTL8 NAC domain worked out at 0.0371 E-score; with GST-SND1(1-203), 0.0389 E-score; in the test with GST-VND7 NAC domain it was 0.0311 E-score; in [1], 0.063 E-score.
As for TGGTCAAA, the binding signal in the test with GST-NTL6(1-168) was -0.00392 E-score; with GST-ANAC019 NAC domain it was -0.0774 E-score; with GST-ANAC055(1-171) it was 0.0433 E-score; with GST-NAP(1-166) it was 0.0186 E-score; with GST-NST2(1-184), -0.0943 E-score; in the test with GST-NTL8 NAC domain it was -0.0734 E-score. Further, the binding signal with GST-SND1(1-203) is -0.00128 E-score; in the test with GST-VND7 NAC domain it was -0.0711 E-score; in test [1], 0.0882 E-score.
AGTTGACG: the binding signal with GST-NTL6(1-168) is -0.0706 E-score; with GST-ANAC019 NAC domain, 0.0919 E-score; with GST-ATAF1 NAC domain, 0.213 E-score; in [2], -0.00485 E-score; in the test with GST-NAP(1-166), 0.0554 E-score; in the test with GST-NTL8 NAC domain, -0.141 E-score. Also, the binding signal with GST-SND1(1-203) turned out to be 0.198 E-score; in the test with GST-VND7 NAC domain it was 0.0414 E-score; in test [1] it was 0.0618 E-score.
With GGATTGAC, the binding signal was 0.0579 E-score with GST-NTL6(1-168); 0.0383 E-score with GST-ATAF1 NAC domain; 0.0192 E-score in test [2]; -0.0265 E-score with GST-NTL8 NAC domain; 0.00967 E-score with GST-SND1(1-203); 0.034 E-score in the test with GST-VND7 NAC domain. Moreover, the binding signal in test [1] amounted to 0.0672 E-score.
As to CAAGACCA, the binding signal was 0.0845 E-score in the test with GST-NTL6(1-168); -0.0124 E-score in the test with GST-ANAC019 NAC domain; 0.0751 E-score with GST-ATAF1 NAC domain; -0.0144 E-score in [2]; 0.0384 E-score with GST-NAP(1-166); 0.0107 E-score with GST-NTL8 NAC domain. In addition, the binding signal with GST-SND1(1-203) is 0.0384 E-score; in the test with GST-VND7 NAC domain, -0.0105 E-score; in [1], 0.0104 E-score.
Regarding AGAAGCAA, the binding signal came to 0.361 E-score in the test with GST-NTL6(1-168); 0.119 E-score with GST-ANAC055(1-171); 0.0783 E-score in the test with GST-ATAF1 NAC domain; 0.0488 E-score in the test with GST-NAP(1-166); 0.284 E-score with GST-NST2(1-184); 0.218 E-score in the test with GST-NTL8 NAC domain. The values for the binding signal (in the test with GST-SND1(1-203); in [1]; with GST-WRKY1(266-371)) were 0.382 E-score, 0.0768 E-score and 0.0108 E-score, respectively.
For the sequence ACAGTCAA, the binding signal with GST-NTL6(1-168) came out at 0.0103 E-score; in the test with GST-ANAC019 NAC domain, 0.028 E-score; with GST-ATAF1 NAC domain, 0.081 E-score; in test [2], 0.0848 E-score; with GST-NST2(1-184), 0.00331 E-score; in the test with GST-NTL8 NAC domain, 0.164 E-score. Moreover, the binding signal in the test with GST-SND1(1-203) worked out at 0.0376 E-score; in test [1], 0.0235 E-score; in the test with GST-WRKY1(266-371), 0.477 E-score.
Consider AACTTGAC, for which the binding signal stood at 0.0283 E-score with GST-NTL6(1-168); 0.00633 E-score with GST-ANAC019 NAC domain; 0.088 E-score in test [2]; 0.043 E-score with GST-NAP(1-166); 0.173 E-score in the test with GST-NST2(1-184); 0.0439 E-score in the test with GST-NTL8 NAC domain. Moreover, the figures for the binding signal (with GST-SND1(1-203); in test [1]; in the test with GST-WRKY1(266-371)) were 0.136 E-score, -0.0872 E-score and 0.425 E-score, respectively.
On to GCACGCAA, for which the binding signal with GST-NTL6(1-168) was -0.133 E-score; with GST-ANAC019 NAC domain it was 0.458 E-score; with GST-ANAC055(1-171), 0.396 E-score; with GST-NST2(1-184), 0.405 E-score; in the test with GST-NTL8 NAC domain, 0.0319 E-score; in the test with GST-SND1(1-203) it was 0.456 E-score. Besides, the binding signal was -0.0583 E-score in test [1] and -0.152 E-score in the test with GST-WRKY1(266-371).

The record behind these values is PMC4081100.
